Patent publication US20260209265A1 (NAVIGO PROTEINS, published 2026)
Changes are numbered by the printed parent chain.

B1: 224771 (SEQ ID NO: 10) (designed binder)
chain: AQFDKIQQIAFYEILHLPNLTEEQRHAFIQSLRDDPSVSKEILAEAKKLNDAQAPKIAAQFDKIQQIAFYEILHLPNLTEEQRHAFIQSLRDDPSVSKEILAEAKKLNDAQAPKIAAQFDKIQQIAFYEILHLPNLTEEQRHAFIQSLRDDPSVSKEILAEAKKLNDAQAPKIAAQFDKIQQIAFYEILHLPNLTEEQRHAFIQSLRDDPSVSKEILAEAKKLNDAQAPKIAAQFDKIQQIAFYEILHLPNLTEEQRHAFIQSLRDDPSVSKEILAEAKKLNDAQAPK
notes: also called 224771 pentamer
B2: 224785 (SEQ ID NO: 12) (designed binder)
chain: B1 chain with I9A, I67A, I125A, I183A, I241A
notes: also called 224785 pentamer
B3: 224772 (SEQ ID NO: 8) (designed binder)
chain: B1 chain with I9A, E13A, I67A, E71A, I125A, E129A, I183A, E187A, I241A, E245A
notes: also called 224772 pentamer
B4: 224770 (SEQ ID NO: 9) (designed binder)
chain: B1 chain with Q7A, I9A, Q65A, I67A, Q123A, I125A, Q181A, I183A, Q239A, I241A
notes: also called 224770 pentamer
B5: 228302 (SEQ ID NO: 18) (designed binder)
chain: AKFDEIAQAAFYEILHLPNLTEEQRHAFIQSLRDDPSVSKEILAEAKKLNDAQAPKIAAKFDEIAQAAFYEILHLPNLTEEQRHAFIQSLRDDPSVSKEILAEAKKLNDAQAPKIAAKFDEIAQAAFYEILHLPNLTEEQRHAFIQSLRDDPSVSKEILAEAKKLNDAQAPKIAAKFDEIAQAAFYEILHLPNLTEEQRHAFIQSLRDDPSVSKEILAEAKKLNDAQAPKIAAKFDEIAQAAFYEILHLPNLTEEQRHAFIQSLRDDPSVSKEILAEAKKLNDAQAPK
notes: also called 228302 pentamer

What follows are binders tested against Natalizumab (IgG4) (assay: SPR (Bruker SPR-32, 25 C, Langmuir 1:1 model)).
Chain of Natalizumab (IgG4) (VH, as listed by the source, chain 1 of 2): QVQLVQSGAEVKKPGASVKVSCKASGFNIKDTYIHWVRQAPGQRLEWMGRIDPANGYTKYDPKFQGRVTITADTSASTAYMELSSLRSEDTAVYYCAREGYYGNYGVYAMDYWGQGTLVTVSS
Chain of Natalizumab (IgG4) (VL, as listed by the source, chain 2 of 2): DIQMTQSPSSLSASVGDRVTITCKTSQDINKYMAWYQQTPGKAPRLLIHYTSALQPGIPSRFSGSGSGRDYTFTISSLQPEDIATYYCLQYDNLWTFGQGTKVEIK

B1 and B2 cannot be ordered by Kd: under 0.5 nM for the first, under 0.5 nM for the second.

Going from B3 to B4, the Kd rises from under 0.5 nM to 3 nM. The first binds more tightly here.

B5 gave a Kd of 3.3 nM.

The binders below were run against T1, Panitumab (IgG2) (assay: SPR (Bruker SPR-32, 25 C, Langmuir 1:1 model)).
T1 construct: also called hIgG2

B1 and B2 are within 1.5-fold of each other in Kd: 2 nM for the first, 1.7 nM for the second.

First: B3
Second: B4
The Kd of the first is lower: under 0.5 nM for the first, 9.1 nM for the second.

Binder B5 has a Kd of 24 nM.

What follows are binders tested against T2, Octagam (IgG sample) (assay: dynamic binding capacity at 10% breakthrough; ligand coupled to agarose beads, Octagam 2.2 mg/ml loaded).
T2 construct: also called hIgG

B1 and B2 are within 1.5-fold of each other in “DBC10% 6 min residence time” value: 63 mg/mL for the first, 61 mg/mL for the second.

B3 and B4 are within 1.5-fold of each other in “DBC10% 6 min residence time” value: 65 mg/mL for the first, 60 mg/mL for the second.

These binders were tested against T2, Octagam (IgG sample) (assay: DBC10 of the immobilized ligand after 50 h in 1 M NaOH, in % of the DBC10 at 0 h; Octagam loaded, 6 min residence time).

First: B1
Second: B2
The “Remaining IgG binding capacity after 50 h, 1 M NaOH (%)” value of the first is higher: 66% for the first, 63% for the second.

Going from B3 to B4, the “Remaining IgG binding capacity after 50 h, 1 M NaOH (%)” value falls from 80% to 74%.

The binders below were run against T2, Octagam (IgG sample) (assay: step pH elution with 0.1 M acetic acid of hIgG (Octagam) bound to the immobilized ligand; percent of the bound IgG released at pH 3.7).

First: B1
Second: B2
The “Amount eluted IgG pH 3.7 (%)” value of the first is lower: 3% for the first, 6% for the second.

Going from B3 to B4, the “Amount eluted IgG pH 3.7 (%)” value falls from 3% to 0%.

What follows are binders tested against T2, Octagam (IgG sample) (assay: step pH elution with 0.1 M acetic acid of hIgG (Octagam) bound to the immobilized ligand; percent of the bound IgG released at pH 4.0).

Compared with B1, B2 is lower in “Amount eluted IgG pH 4.0 (%)” value: 97% for the first, 94% for the second.

Compared with B3, B4 is higher in “Amount eluted IgG pH 4.0 (%)” value: 97% for the first, 100% for the second.
